Assay results reported in US20250228951A1, “NOVEL-PEPTIDE-BASED ANTICANCER IMMUNOTHERAPEUTIC AGENT” (TWINPIG BIOLAB INC., priority 2022, published 2025).

Target: T1, membrane protein ITGB2 of M2 macrophages (Homo sapiens, UniProt P05107)
T1 construct: cell membrane proteins of macrophages were obtained using a cell membrane protein extraction kit; endogenous in cells; host or cells: THP-1 cells differentiated into M2 macrophages
Assay: Biotin-peptide pull-down of macrophage cell membrane proteins with LC-MS/MS proteomics
Format: binding
Details: biotin-conjugated peptide reacted with cell membrane proteins of M0, M1, M2 macrophages
Experimental: To determine which protein of M2 macrophages was involved in the specific binding of melittin to M2 macrophages, biotin-conjugated melittin (melittin-biotin) was synthesized. THP-1 cells (5×10^6 cells) were differentiated into M0, M1, and
M2 macrophages, and then collected using a scraper, washed by centrifugation (300×g, 5 min), and cell membrane proteins of macrophages were obtained using a cell membrane protein extraction kit (Thermo Fisher scientific). The proteins reacted with melittin-biotin (200 μg) in which biotin bound to melittin at room temperature (20 to 24° C.) for 1 hour, and then the proteins bound to melittin were obtained using a streptavidin resin (Thermo Fisher scientific). To remove the salt, 100 μl each of 100% methanol, 0.1% formic acid, and 80% CAN were added to an 18 Micro Spin-Column, and the sample was loaded onto the prepared column, and added with 50 μl of 0.1% formic acid to remove unnecessary substances. […] After desalting, the solution was completely removed by drying with a Speed-vac, and analyzed by LC-MS/MS using a UPLC-Exactive equipment (Thermo Fisher Scientific) under the conditions shown in Table 2 below. […] For data analysis, LC-MS/MS data for each sample were analyzed using Proteome Discoverer, and performed by LFQ (Label-Free Quantification) using a human database of Uniprot as the database. […]

Compound: CC[C@H](C)[C@H](NC(=O)CN)C(=O)NCC(=O)N[C@@H](C)C(=O)N[C@H](C(=O)N[C@@H](CC(C)C)C(=O)N[C@@H](CCCCN)C(=O)N[C@H](C(=O)N[C@@H](CC(C)C)C(=O)N[C@H](C(=O)N[C@H](C(=O)NCC(=O)N[C@@H](CC(C)C)C(=O)N1CCC[C@H]1C(=O)N[C@@H](C)C(=O)N[C@@H](CC(C)C)C(=O)N[C@H](C(=O)N[C@@H](CO)C(=O)N[C@@H](Cc1c[nH]c2ccccc12)C(=O)N[C@H](C(=O)N[C@@H](CCCCN)C(=O)N[C@@H](CCCNC(=N)N)C(=O)N[C@@H](CCCCN)C(=O)N[C@@H](CCCNC(=N)N)C(=O)N[C@@H](CCC(N)=O)C(=O)N[C@@H](CCC(N)=O)C(N)=O)[C@@H](C)CC)[C@@H](C)CC)[C@@H](C)O)[C@@H](C)O)C(C)C)C(C)C [Melittin]
- M2 TAM binding target protein: interacted and bound with the membrane protein ITGB2
